In the supplement of paper PMC6089552:
Out of some 3,200 compounds screened, about 300 (9.4%) showed activity. Only a part is listed here, and it is no random draw.

System: A673/TR/shEF
Test: cell viability (LOESS-normalised, relative to median of negative controls) (log2 ratio); higher = more viable cells (less compound effect), active = hit call of the paper (over 3 MAD below the median)
Settings: treatment time: 72 h
In short: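 A673/TR/shEF Ewing sarcoma cells were plated at 1,500 per well in 384-well plates and cultured with or without doxycycline, added 24 h before compounds, to induce EWS-FLI1 shRNA knockdown. Library compounds at two or more concentrations, alongside DMSO controls, were applied for three days. Cell viability was measured by CellTiter-Glo luminescence on an Envision reader. Readings were LOESS-corrected per plate, divided by the median of negative controls and log2-transformed, and hits were wells lying at least three median absolute deviations from the median of all screened wells.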

[1] = 0.103 µM, library screen: screen3, EWS-FLI1 expression: high (no doxycycline)
[2] = 0.103 µM, library screen: screen3, EWS-FLI1 expression: low (doxycycline-induced shRNA knockdown)
[3] = 0.308 µM, library screen: screen3, EWS-FLI1 expression: high (no doxycycline)
[4] = 0.308 µM, library screen: screen3, EWS-FLI1 expression: low (doxycycline-induced shRNA knockdown)
[5] = 0.926 µM, library screen: screen3, EWS-FLI1 expression: high (no doxycycline)
[6] = 0.926 µM, library screen: screen3, EWS-FLI1 expression: low (doxycycline-induced shRNA knockdown)
[7] = 2.8 µM, library screen: screen3, EWS-FLI1 expression: high (no doxycycline)
[8] = 2.8 µM, library screen: screen3, EWS-FLI1 expression: low (doxycycline-induced shRNA knockdown)
[9] = 8.3 µM, library screen: screen3, EWS-FLI1 expression: high (no doxycycline)
[10] = 8.3 µM, library screen: screen3, EWS-FLI1 expression: low (doxycycline-induced shRNA knockdown)
[11] = 25 µM, library screen: screen3, EWS-FLI1 expression: high (no doxycycline)
[12] = 25 µM, library screen: screen3, EWS-FLI1 expression: low (doxycycline-induced shRNA knockdown)
[13] = 0.25 µM, library screen: screen2, EWS-FLI1 expression: high (no doxycycline)
[14] = 0.25 µM, library screen: screen2, EWS-FLI1 expression: low (doxycycline-induced shRNA knockdown)
[15] = 2.5 µM, library screen: screen2, EWS-FLI1 expression: high (no doxycycline)
[16] = 2.5 µM, library screen: screen2, EWS-FLI1 expression: low (doxycycline-induced shRNA knockdown)
[17] = 0.25 µM, library screen: screen1, EWS-FLI1 expression: high (no doxycycline)
[18] = 0.25 µM, library screen: screen1, EWS-FLI1 expression: low (doxycycline-induced shRNA knockdown)
[19] = 2.5 µM, library screen: screen1, EWS-FLI1 expression: high (no doxycycline)
[20] = 2.5 µM, library screen: screen1, EWS-FLI1 expression: low (doxycycline-induced shRNA knockdown)

Measured: cell viability (log2)

Nc1cc(C(Cl)=C(Cl)Cl)c(S(N)(=O)=O)cc1S(N)(=O)=O
inactive: [1] -0.128 | [2] 0.0273 | [3] -0.0348 | [4] 0.0538 | [5] -0.00415 | [6] 0.0607 | [7] 0.0637 | [8] 0.0856 | [9] 0.0769 | [10] 0.073 | [11] 0.0282 | [12] 0.11

COc1ccc(CCN(C)CCCC(C#N)(c2cc(OC)c(OC)c(OC)c2)C(C)C)cc1OC (stereo not given)
inactive: [13] 0.0904 | [14] 0.0375 | [15] 0.0541 | [16] 0.0521

CC[C@H](C)C(=O)O[C@H]1CCC=C2C=C[C@H](C)[C@H](CC[C@@H]3C[C@@H](O)CC(=O)O3)[C@H]21
inactive: [17] 0.147 | [18] 0.00215 | [13] 0.167 | [14] 0.108 | [19] 0.0603 | [20] -0.0998 | [15] 0.145 | [16] 0.0674

COC(=O)/C=C/C(C)=C\C=C\C(C)=C\C=C\C=C(C)\C=C\C=C(C)\C=C\C(=O)O
inactive: [17] -0.0751 | [18] 0.068 | [19] 0.0815 | [20] 0.0619

CC(=O)[C@]1(O)Cc2c(O)c3c(c(O)c2[C@@H](O[C@H]2C[C@H](N)[C@H](O)[C@H](C)O2)C1)C(=O)c1ccccc1C3=O
active: [13] -2.37 | [14] -0.307 | [15] -3.12 | [16] -0.984

O=c1oc2ccccc2c(O)c1Cc1c(O)c2ccccc2oc1=O
inactive: [17] 0.0318 | [18] 0.0542 | [19] 0.13 | [20] 0.103

CN1CCN(CCCN2c3ccccc3Sc3ccc(Cl)cc32)CC1
inactive: [17] 0.0634 | [18] 0.114 | [13] 0.165 | [14] 0.0998 | [19] 0.163 | [20] 0.21 | [15] 0.085 | [16] 0.0319

N=c1c[n+](N2CCOCC2)[n-]o1
inactive: [13] 0.148 | [14] 0.115 | [15] 0.0561 | [16] 0.0199

Nc1nc(=S)c2[nH]cnc2[nH]1
active: [19] -0.318 | [15] -0.33 | [9] -0.323 | 25 µM, library screen: screen2, EWS-FLI1 expression: high (no doxycycline) -0.96 | 25 µM, library screen: screen2, EWS-FLI1 expression: low (doxycycline-induced shRNA knockdown) -0.163 | [11] -0.834
inactive: 0.025 µM, library screen: screen2, EWS-FLI1 expression: high (no doxycycline) 0.0835 | 0.025 µM, library screen: screen2, EWS-FLI1 expression: low (doxycycline-induced shRNA knockdown) 0.0155 | [1] 0.132 | [2] 0.0451 | [17] 0.0575 | [18] 0.137 | [13] 0.0679 | [14] 0.0691 | [3] 0.156 | [4] 0.137 | [5] 0.118 | [6] 0.102 | [20] 0.0456 | [16] -0.0263 | [7] 0.0258 | [8] 0.111 | [10] 0.0181 | [12] 0.027

O=C1c2ccccc2C(=O)c2c1ccc(O)c2O
inactive: [17] 0.112 | [18] -0.0153 | [19] 0.111 | [20] 0.0328

Cc1c(C)c2c(c(C)c1O)CCC(C)(CN1CCN(c3cc(N4CCCC4)nc(N4CCCC4)n3)CC1)O2 (stereo not given)
inactive: [13] 0.267 | [14] 0.0318 | [15] 0.186 | [16] 0.0468
